# Measurements published in the supplement of paper PMC8728848.
# The list shows a part of the results.
# What was measured:
# Assay in all cases: glycan array binding signal (z-score within array); higher = stronger binding
# Details in all cases: glycan notation: IUPAC condensed, linker removed
# [1] = molecular target: Fuc(a1-2)[GalNAc(a1-3)]Gal(b1-3)GlcNAc(b1-3)GalNAc
# Outline: (§1)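 From the Consortium for Functional Glycomics database, 3228 arrays were curated, keeping only those whose protein sequence was available. Binding is given as a within-array Z-score averaged across arrays sharing a protein sequence and across linkers. Negative Z-scores can be read as non-binding.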
# [2] = molecular target: Fuc(a1-2)[GalNAc(a1-3)]Gal(b1-3)GlcNAc(b1-6)GalNAc
# Outline: as §1
# [3] = molecular target: Fuc(a1-2)[GalNAc(a1-3)]Gal(b1-4)Glc
# Outline: as §1
# [4] = molecular target: Fuc(a1-2)[GalNAc(a1-3)]Gal(b1-4)GlcNAc
# Outline: as §1
# [5] = molecular target: Fuc(a1-2)[GalNAc(a1-3)]Gal(b1-4)GlcNAc(b1-2)Man
# Outline: as §1
# [6] = molecular target: Fuc(a1-2)[GalNAc(a1-3)]Gal(b1-4)GlcNAc(b1-2)Man(a1-3)[Fuc(a1-2)[GalNAc(a1-3)]Gal(b1-4)GlcNAc(b1-2)Man(a1-6)]Man(b1-4)GlcNAc(b1-4)GlcNAc
# Outline: as §1
# [7] = molecular target: Fuc(a1-2)[GalNAc(a1-3)]Gal(b1-4)GlcNAc(b1-2)Man(a1-3)[Fuc(a1-2)[GalNAc(a1-3)]Gal(b1-4)GlcNAc(b1-2)Man(a1-6)]Man(b1-4)GlcNAc(b1-4)[Fuc(a1-6)]GlcNAc
# Outline: as §1
# [8] = molecular target: Fuc(a1-2)[GalNAc(a1-3)]Gal(b1-4)GlcNAc(b1-3)Gal(b1-4)GlcNAc
# Outline: as §1
# [9] = molecular target: Fuc(a1-2)[GalNAc(a1-3)]Gal(b1-4)GlcNAc(b1-3)Gal(b1-4)GlcNAc(b1-3)Gal(b1-4)GlcNAc
# Outline: as §1
# [10] = molecular target: Fuc(a1-2)[GalNAc(a1-3)]Gal(b1-4)GlcNAc(b1-3)GalNAc
# Outline: as §1
# [11] = molecular target: Fuc(a1-2)[GalNAc(a1-3)]Gal(b1-4)GlcNAc(b1-3)[Fuc(a1-2)[GalNAc(a1-3)]Gal(b1-4)GlcNAc(b1-6)]GalNAc
# Outline: as §1
# [12] = molecular target: Fuc(a1-2)[GalNAc(a1-3)]Gal(b1-4)GlcNAc(b1-6)GalNAc
# Outline: as §1
# [13] = molecular target: Fuc(a1-2)[GalNAc(a1-3)]Gal(b1-4)[Fuc(a1-3)]GlcNAc
# Outline: as §1
# [14] = molecular target: Fuc(a1-2)[GalNAc(a1-3)]Gal(b1-4)[Fuc(a1-3)]GlcNAc(b1-3)GalNAc
# Outline: as §1
# [15] = molecular target: Fuc(a1-2)[GalNAc(a1-4)]Gal(b1-4)GlcNAc
# Outline: as §1
# [16] = molecular target: Fuc(a1-2)[GalNAc(b1-3)]Gal
# Outline: as §1
# [17] = molecular target: Fuc(a1-3)GlcNAc
# Outline: as §1
# [18] = molecular target: Fuc(a1-3)[Gal(b1-4)]Glc6S
# Outline: as §1
# [19] = molecular target: Fuc(a1-3)[Gal(b1-4)]GlcNAc
# Outline: as §1
# [20] = molecular target: Fuc(a1-3)[Gal(b1-4)]GlcNAc(b1-2)Man
# Outline: as §1
# [21] = molecular target: Fuc(a1-3)[Gal(b1-4)]GlcNAc(b1-2)Man(a1-3)[Fuc(a1-3)[Gal(b1-4)]GlcNAc(b1-2)Man(a1-6)]Man(b1-4)GlcNAc(b1-4)GlcNAc
# Outline: as §1
# [22] = molecular target: Fuc(a1-3)[Gal(b1-4)]GlcNAc(b1-2)Man(a1-3)[Fuc(a1-3)[Gal(b1-4)]GlcNAc(b1-2)Man(a1-6)]Man(b1-4)GlcNAc(b1-4)[Fuc(a1-6)]GlcNAc
# Outline: as §1
# [23] = molecular target: Fuc(a1-3)[Gal(b1-4)]GlcNAc(b1-3)Gal(b1-3)[Fuc(a1-4)]GlcNAc
# Outline: as §1
# [24] = molecular target: Fuc(a1-3)[Gal(b1-4)]GlcNAc(b1-3)Gal(b1-4)[Fuc(a1-3)]GlcNAc
# Outline: as §1
# [25] = molecular target: Fuc(a1-3)[Gal(b1-4)]GlcNAc(b1-3)Gal(b1-4)[Fuc(a1-3)]GlcNAc(b1-3)Gal(b1-4)[Fuc(a1-3)]GlcNAc
# Outline: as §1
# [26] = molecular target: Fuc(a1-3)[Gal(b1-4)]GlcNAc(b1-3)GalNAc
# Outline: as §1
# [27] = molecular target: Fuc(a1-3)[Gal(b1-4)]GlcNAc(b1-6)GalNAc
# Outline: as §1
# [28] = molecular target: Fuc(a1-3)[Gal(b1-4)]GlcNAc(b1-6)[Gal(b1-3)GlcNAc(b1-3)]Gal(b1-4)Glc
# Outline: as §1
# [29] = molecular target: Fuc(a1-3)[Gal(b1-4)]GlcNAc6S
# Outline: as §1
# [30] = molecular target: Fuc(a1-3)[Gal3S(b1-4)]Glc
# Outline: as §1
# [31] = molecular target: Fuc(a1-3)[Gal3S(b1-4)]GlcNAc
# Outline: as §1
# [32] = molecular target: Fuc(a1-3)[Gal3S(b1-4)]GlcNAc6S
# Outline: as §1
# [33] = molecular target: Fuc(a1-3)[GalNAc(b1-4)]GlcNAc
# Outline: as §1
# [34] = molecular target: Fuc(a1-3)[GalNAc(b1-4)]GlcNAc6S
# Outline: as §1
# [35] = molecular target: Fuc(a1-4)GlcNAc
# Outline: as §1
# [36] = molecular target: Fuc(b1-3)GlcNAc
# Outline: as §1
# [37] = molecular target: Gal(a1-2)Gal
# Outline: as §1
# [38] = molecular target: Gal(a1-3)Gal
# Outline: as §1
# [39] = molecular target: Gal(a1-3)Gal(b1-3)GlcNAc
# Outline: as §1
# [40] = molecular target: Gal(a1-3)Gal(b1-3)GlcNAc(b1-2)Man
# Outline: as §1
# [41] = molecular target: Gal(a1-3)Gal(b1-3)GlcNAc(b1-2)Man(a1-3)[Gal(a1-3)Gal(b1-3)GlcNAc(b1-2)Man(a1-6)]Man(b1-4)GlcNAc(b1-4)GlcNAc
# Outline: as §1
# [42] = molecular target: Gal(a1-3)Gal(b1-3)GlcNAc(b1-3)GalNAc
# Outline: as §1
# [43] = molecular target: Gal(a1-3)Gal(b1-3)GlcNAc(b1-6)GalNAc
# Outline: as §1
# [44] = molecular target: Gal(a1-3)Gal(b1-3)[Fuc(a1-4)]GlcNAc(b1-2)Man(a1-3)[Gal(a1-3)Gal(b1-3)[Fuc(a1-4)]GlcNAc(b1-2)Man(a1-6)]Man(b1-4)GlcNAc(b1-4)GlcNAc
# Outline: as §1
# [45] = molecular target: Gal(a1-3)Gal(b1-4)Glc
# Outline: as §1
binder,measurement,setting,value
"Cp ZmpB (Clostridium perfringens), Q0TR08 (protein) MNKRKIAAIILATMITNLSATTIDVLAQELNTKNNSKVEVSHDDESHQARVSKFDLYNSDKLDAYNQEFQVSRSNIKSINNNGGKYNSSTIDKAIDGNLETHWETGKPNDANFTNEVVVTFNEITNIDRIVYSARRDSARGKGFAKEFEIYASLKDEGDDFNLVSSGEYTESTRDLVEIKFNPTDFKRLKFKFKKADQNWASAAEFMFYKEDKLNEKFNGLFTDSSMNKVSEEFNTLEKLNAFENELKDHPIYDLYKEGLNNARAILTETSENPTKATLGQITYNLNDDYNNQYRMPYKNIKAIKNNGRHYAAQNIEKAIDNDVNTYWETGTLNSSSFNNEVEVEFNDLVTLDRIVYGSRQSDLKGFAEEVYIYASRTSKGDTYKLVATGAHEATKGLVEAKFEPTEFKRVKFKFKKSKQNSATLNELMFYKPDEVYSSIPKLFTDGTMSELSEEFNSLEKINAFKEKAKNHPLYNDFNETIELAESLISNPRKEDVLELEMRGDSISEAKKRKVWNFQDWQITGLSARAGDKITVYVDVAEGDPTPTLLYKQSLTQHGGATSFQLKPGKNEITIPEINYESNGIPKDVIQGGDLFFTNYKSDSQKRAPKVRIEGASKYPVFILGKSDENEVMKELEAYVEKIKAEPKTTPNIFAVSSNKSLEFVQATYALDWYKKNNKTPKYTAEQWDQYIADAMGFWGFDNSKDVNSDFNFRIMPMVKNLSGGAFMNAGNGVIGIRPGNQDAILAANKGWGVAHELGHNFDTGGRTIVEVTNNMMPLFFESKYKTKTRITDQNIWENNTYPKVGLDDYSNNELYNKADSTHLAQLAPLWQLYLYDNTFYGKFERQFRERDFGNKNREDIYKSWVVAASDAMELDLTEFFARHGIRVDDKVKEDLAKYPKPDKKIYYLNDLAMNYKGDGFTENAKVSVSTSGSNGNIKLSFSVDDENKDNILGYEIRRDGKYVGFTSNDSFVDTKSNLDEDGVYVVTPYDRKLNTLNPIEVNALQPTLSVNPVITLALGEEFNEEEYIVAKDIKGNSLSESVKVKSSNVNTSKVGEYEVLYSLEDSKGNEYTKTSKVNVVSRKEYMSDLTPKQSSNGWGTVRKDKSISGGVIGLTRDGDFVDYNKGLGLHSNAEYVYDLEGKDYDYFESYVGVDKAMSSRPASSVIFKVLVDGEEKFNSGVMRSTTPQKYVKVDVKNAKELKLIVNDAGDGDSSDHASFGDAKLATLSSKPIIKGENLAYSMDEKVDLMKGITATDIEDGNITSKVQIKSSDFVEGKSGIFTVVYSVTDSDGLTSECSRTIAVTDKETQLSDLNWKSATIGSGSVRKDRAVSGNQIRLLNEDNSVETFAKGIGTHSYSEIVYNSEGYDIFDTWVGIDRHVADKKVSSVKFKVYVDGELKAETDVMRIDTPKKRLVVDVRNSKEIKLVVDVADNGNNWDHADWADAKFRNLAEYDASELNKAIEEAKKLDLNNYTEESSEALKNAISKGEEALLSKDKETINSALEELNKEMNSLVKVDLNAVINIPDKYLLKSIQNQLNKTGDITLGDMYSLTTLTLSGVEDLTGLENAKNLETLNMDYNEVKDLRPLSKLKKLNTLNAQEQFIAAGELKPSNGKVIGDSKVYNREGKNVAKTIRVVDKNGNTILEQDAKDEFTINTKDLSSGLYGVHVLFEDEGFSGVMFYLFNV",glycan array binding signal (z-score),[1],0.006
same,glycan array binding signal (z-score),[2],-0.28
same,glycan array binding signal (z-score),[3],0.149
same,glycan array binding signal (z-score),[4],-0.068
same,glycan array binding signal (z-score),[5],-0.362
same,glycan array binding signal (z-score),[6],-0.201
same,glycan array binding signal (z-score),[7],-0.353
same,glycan array binding signal (z-score),[8],-0.447
same,glycan array binding signal (z-score),[9],-0.359
same,glycan array binding signal (z-score),[10],-0.003
same,glycan array binding signal (z-score),[11],0.161
same,glycan array binding signal (z-score),[12],-0.028
same,glycan array binding signal (z-score),[13],-0.371
same,glycan array binding signal (z-score),[14],-0.073
same,glycan array binding signal (z-score),[15],0.298
same,glycan array binding signal (z-score),[16],-0.499
same,glycan array binding signal (z-score),[17],0.464
same,glycan array binding signal (z-score),[18],0.539
same,glycan array binding signal (z-score),[19],0.121
same,glycan array binding signal (z-score),[20],0.205
same,glycan array binding signal (z-score),[21],0.308
same,glycan array binding signal (z-score),[22],-0.107
same,glycan array binding signal (z-score),[23],-0.231
same,glycan array binding signal (z-score),[24],-0.294
same,glycan array binding signal (z-score),[25],-0.233
same,glycan array binding signal (z-score),[26],-0.12
same,glycan array binding signal (z-score),[27],-0.181
same,glycan array binding signal (z-score),[28],-0.29
same,glycan array binding signal (z-score),[29],0.068
same,glycan array binding signal (z-score),[30],-0.001
same,glycan array binding signal (z-score),[31],-0.069
same,glycan array binding signal (z-score),[32],-0.404
same,glycan array binding signal (z-score),[33],0.02
same,glycan array binding signal (z-score),[34],-0.027
same,glycan array binding signal (z-score),[35],-0.31
same,glycan array binding signal (z-score),[36],-0.093
same,glycan array binding signal (z-score),[37],-0.48
same,glycan array binding signal (z-score),[38],-0.22
same,glycan array binding signal (z-score),[39],0.288
same,glycan array binding signal (z-score),[40],0.226
same,glycan array binding signal (z-score),[41],0.14
same,glycan array binding signal (z-score),[42],-0.001
same,glycan array binding signal (z-score),[43],-0.156
same,glycan array binding signal (z-score),[44],-0.141
same,glycan array binding signal (z-score),[45],-0.084
